This note sets out measurements from article PMC3509445 (Biology Open, 2012).

The assay addresses ThioHis-VHL30 (full-length VHL30 thioredoxin-His fusion protein) (UniProt P40337-1). Briefly: pull-down.

B1: GST-TLX ΔN (Δ[…]) (domain or fragment)
chain: not shown
B1: the binding result was “binds”.
